Data: a collection of fitness landscapes (doi:10.1016/j.celrep.2020.107928)
In all, about 81,000 sequences were measured (“one-hybrid fitness for binding NBS DNA”: median about -0.1, highest 2% from about 0.36 on). The list shows a part of the results.

B1: Caulobacter ParB omega fusion; a variant is named by its letters at X, in order, B8GW30 (parent)
chain: MESVVVGEPGMSEGRRGLGRGLSALLGEVDAAPAQAPGEQLGGSREAPIEILQRNPDQPRRTFREEDLEDLSNSIREKGVLQPILVRPSPDTAGEYQIVAGERAWRAAQRAGLKTVPIMVRELDDLAVLEIGIIENVQRADLNVLEEALSYKVLMEKFERTQENIAQTIGKSXSHVANXMRLLXLPDEVQSYLVSGELTAXHARAIAAAADPVALAKQIIEGGLSVRETEALARKAPNLSAGKSKGGRPPRVKDTDTQALESDLSSVLGLDVSIDHRGSTGTLTITYATLEQLDDLCNRLTRGI

Variants of: B1
Test: one-hybrid fitness for binding NBS DNA (the Noc-binding site; scaled: cognate 1, non-cognate 0); higher = stronger binding
Conditions: with NBS DNA site
How it was run: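 Fitness here means the log change in variant-to-wild-type read ratio between plasmids sequenced before and after selection. That scale was set so cognate equals 1 and non-cognate equals 0. The selection was a bacterial one-hybrid screen of Caulobacter ParB libraries, four specificity codons randomised, in E. coli USO carrying a HIS3 reporter with the site 19 bp from the promoter, grown 48 hours at 37°C on M9-minus-histidine with 0.1 mM IPTG and 5 mM 3-AT.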

| Variant | one-hybrid fitness for binding NBS DNA |
| --- | --- |
| YFYS | ≤ 0.2 |
| WPPR | ≤ 0.2 |
| WKLR | ≤ 0.2 |
| CAAW | ≤ 0.2 |
| PMQR | ≤ 0.2 |
| RCLK | ≤ 0.2 |
| DTQG | ≤ 0.2 |
| TQGT | ≤ 0.2 |
| RHSL | ≤ 0.2 |
| TEQA | ≤ 0.2 |
| SAYC | ≤ 0.2 |
| INWI | ≤ 0.2 |
| YVHD | ≤ 0.2 |
| SFML | ≤ 0.2 |
| HTGN | ≤ 0.2 |
| KTFR | ≤ 0.2 |
| KHVC | ≤ 0.2 |
| QHGA | 0.208 |
| ERVR | ≤ 0.2 |
| NERC | ≤ 0.2 |
| ATVD | ≤ 0.2 |

| Variant | one-hybrid fitness for binding NBS DNA |
| --- | --- |
| HQSA | ≤ 0.2 |
| GRQG | ≤ 0.2 |
| RQPA | ≤ 0.2 |
| GPTH | ≤ 0.2 |
| GWYS | ≤ 0.2 |
| YKKF | ≤ 0.2 |
| SFRF | ≤ 0.2 |
| VIML | ≤ 0.2 |
| PINF | ≤ 0.2 |
| TWTY | ≤ 0.2 |
| LGAS | ≤ 0.2 |
| DAEV | ≤ 0.2 |
| AATN | ≤ 0.2 |
| NFPR | ≤ 0.2 |
| RTGV | ≤ 0.2 |
| QWVI | ≤ 0.2 |
| DEGR | ≤ 0.2 |
| WMPH | ≤ 0.2 |
| PEHL | ≤ 0.2 |
| KEDR | ≤ 0.2 |
| NAMR | ≤ 0.2 |

| Variant | one-hybrid fitness for binding NBS DNA |
| --- | --- |
| SKPR | ≤ 0.2 |
| CPAD | ≤ 0.2 |
| MGEF | ≤ 0.2 |
| WANF | ≤ 0.2 |
| YKEK | ≤ 0.2 |
| FDLG | ≤ 0.2 |
| NPHY | ≤ 0.2 |
| QEDE | ≤ 0.2 |
| PGTG | ≤ 0.2 |
| QYSP | ≤ 0.2 |
| AGWR | ≤ 0.2 |
| AAAI | ≤ 0.2 |
| RFDT | ≤ 0.2 |
| PACG | ≤ 0.2 |
| MMTF | ≤ 0.2 |
| RVMS | 0.255 |
| MQGT | ≤ 0.2 |
| QGKC | ≤ 0.2 |
| QSVK | ≤ 0.2 |
| RGRS | 0.311 |
| HQPM | ≤ 0.2 |

| Variant | one-hybrid fitness for binding NBS DNA |
| --- | --- |
| FYAL | ≤ 0.2 |
| SDLL | ≤ 0.2 |
| PYKG | ≤ 0.2 |
| RNCT | ≤ 0.2 |
| DGTC | ≤ 0.2 |
| TLGD | ≤ 0.2 |
| GGRL | ≤ 0.2 |
| AYAC | ≤ 0.2 |
| QVNV | ≤ 0.2 |
| GMSC | ≤ 0.2 |
| TWYF | ≤ 0.2 |
| QTHN | 0.297 |
| HPFG | ≤ 0.2 |
| WTDK | ≤ 0.2 |
| RCEP | ≤ 0.2 |
| SVVV | ≤ 0.2 |
| TLIL | ≤ 0.2 |
| THRP | ≤ 0.2 |
| KTKA | ≤ 0.2 |
| HPLY | ≤ 0.2 |
| HSNS | ≤ 0.2 |
